The campaign covered roughly 43,000 compounds. About 200 (0.47%) were called active. Inconclusive results (about 12%) are left out. The call rests on the fitted dose curve; in most records, active means well fitted cell-killing curve with a large enough effect; inconclusive means small, poorly fitted or top-dose-only effect, or effect the other way; inactive means flat fitted curve, though single readings scatter. This is one part of the list.
On the % scale 0 is the no-effect control and ±100 the full control effect.

The experiment is described as follows: Cell viability qHTS assay in S16 Pmp22-F2sN cells. Further: nearly all actives have a fitted effect of over 65% in size. The following applies: S16 Pmp22-F2sN Schwann cells (luciferase reporters placed in the Pmp22 gene) viability, CellTiter-Glo, 24 h; series mostly up to 57.5 µM; activity change, negative = cytotoxicity: at the top concentration. The method in brief:
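CellTiter-Glo counter-screen, qHTS, 1536-well. Cells: S16(c9) Pmp22-F2sN, 500-1,000/well in DMEM + 10% FBS. Cpd 23 nL pin transfer, 24 h, 37C/5% CO2. Read: luminescence, CCD imager.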
Background: In qHTS, concentration-response curves come from the screen itself.
With `CCC(CC)C(=O)Nc1ccc2nc(SCC(=O)N3CCc4ccccc43)sc2c1`, the “activity change, negative = cytotoxicity” value is inactive: 2.3%. As for `CCCCNc1ccc(-c2nc(-c3ccco3)no2)cc1[N+](=O)[O-]`, the figure is inactive: -3.48%. As for `CC1=C(C(N)=O)C(c2ccc(F)cc2)n2nc(-c3ccccc3Cl)nc2N1` (stereo unspecified), the figure is inactive: 11.8%; as for `COc1ccc(CC(=O)NCc2ccc3c(c2)CCN3C(C)=O)cc1`, inactive: 4.05%; as for `COc1ccc(-c2nc(SCC(=O)Nc3ccc4c(c3)OCCO4)c(-c3ccc(F)cc3)[nH]2)cc1OC`, inactive: 0.844%. The result for `O=C(c1ccc2c(c1)N(Cc1ccc(F)cc1)C(=O)c1ccccc1S2(=O)=O)N1CCN(Cc2ccccc2)CC1` reads inactive: 10.9%. As to `Cc1ccc2oc3c(c(=O)c2c1)C(c1ccc([N+](=O)[O-])cc1)N(CCCN1CCOCC1)C3=O` (stereo unspecified), the “activity change, negative = cytotoxicity” value was inactive: 11.5%. As for `C=CCc1ccccc1OCc1nc2ccccc2n1CC`, the figure is inactive: 4.44%; as for `CCOC(=O)C1CCN(C(=O)Cn2ncc3c4ccccc4n(Cc4ccc(F)cc4)c3c2=O)CC1`, inactive: -3.73%. As for `COc1ccc(S(=O)(=O)c2c(O)c3ccc(C(=O)NCc4ccc(Cl)cc4)cc3[nH]c2=O)cc1`, the figure is inactive: 2.79%. The result for `Cc1csc2nc(COc3ccc(NC(=O)COc4ccccc4)cc3)cc(=O)n12` reads inactive: -1.02%; that for `Cc1cc(NC(=O)CSc2ncc(C(=O)Nc3ccc(Cl)cc3)c(=O)n2C)no1`, inactive: 5.05%. Turning to `O=C(CN1C(=O)c2cccnc2Oc2ccc(Cl)cc21)NCCc1ccccc1`, the “activity change, negative = cytotoxicity” value was inactive: -0.0924%.

For the compound `Cc1ccc(NC(=O)CN2C(=O)COc3ccc(S(=O)(=O)NC4CCCC4)cc32)cc1Cl`, the “activity change, negative = cytotoxicity” value is inactive: -0.445%. As for `CC(C)(C)C(=O)Cn1c(=O)n(-c2ccccc2)c(=O)c2c3c(sc21)CCC3`, the figure is inactive: 14.1%; as for `Cc1cc(C)c2c(=O)cc(C(=O)Nc3c(C)n(C)n(-c4ccccc4)c3=O)oc2c1`, inactive: -3.32%. For `CCOc1ccc(-c2cc3c(=O)n(CC(=O)Nc4cc(F)ccc4C)ccn3n2)cc1`, the “activity change, negative = cytotoxicity” value is inactive: 3%. Consider `COc1ccc(C(=O)c2c(N)c(-c3nc(-c4ccc(OC)cc4)cs3)c3ccccn23)cc1`, for which the “activity change, negative = cytotoxicity” value is inactive: 18.8%. The result for `Cc1cc(C)c(/C=C/c2onc(C)c2S(=O)(=O)N2CCC(C(=O)NCc3ccccc3Cl)CC2)c(C)c1` reads inactive: 0.594%. As for `COc1cc2[nH]c(=O)n(CCC(=O)N3CCN(c4ccc(Cl)cc4)CC3)c(=O)c2cc1OC`, the figure is inactive: 0.155%; as for `CCn1nc(-c2ccccc2)c(-c2ccccc2)c(C(=O)Nc2ccccc2C#N)c1=O`, inactive: -0.618%.

Regarding `Cc1cccc(NC(=O)CSc2nc3ccccc3nc2N2CCCCC2)c1C`, the “activity change, negative = cytotoxicity” value was inactive: -27.2%. In the case of `COc1cc(NC(=O)C(Cc2ccccc2)NS(=O)(=O)c2cccc3nsnc23)cc(OC)c1` (stereo unspecified), the “activity change, negative = cytotoxicity” value was inactive: -6.9%. The result for `CCOc1ccc(N(CC(=O)Nc2ccccc2CC)S(=O)(=O)c2c(C)noc2C)cc1` reads inactive: 15.1%; that for `Cc1ccc(Cl)cc1NC(=O)C1CCN(S(=O)(=O)c2cccc3nonc23)CC1`, inactive: 12.4%. In the case of `COc1cccc(Cn2c(=O)n(CCc3ccccc3)c(=O)c3c2c2cc(OC)ccc2n3C)c1`, the “activity change, negative = cytotoxicity” value is inactive: -0.964%. Regarding `COc1ccc(C(=O)NNc2ncnc3c2cnn3-c2ccc(C)c(Cl)c2)cc1`, the “activity change, negative = cytotoxicity” value is inactive: -16.5%. On to `CC(=O)c1cccc(NC(=O)CCc2c(C)nc3c(c(C)nn3-c3ccccc3)c2C)c1`, for which the “activity change, negative = cytotoxicity” value was inactive: -0.319%. As to `Cc1cc(C)cc(NC(=O)c2cc(S(=O)(=O)N3CCC(C)CC3)cn2C)c1`, the “activity change, negative = cytotoxicity” value was inactive: 6.01%.

With `CCCCNc1nc(Oc2ccc(=O)n(C)n2)nc(N2CCOCC2)n1`, the “activity change, negative = cytotoxicity” value was inactive: 5.81%. The result for `COc1ccc(Br)cc1CNC(=O)c1ccc2c(c1)nc1n2CCC(C)C1` (stereo unspecified) reads inactive: 11%; that for `O=C(Cn1ccn(-c2ccc(F)c(F)c2)c(=O)c1=O)NCCc1ccccc1`, inactive: 4.8%. Turning to `CN1CCN(C(=O)c2ccc3c(c2)N(Cc2ccc(Cl)cc2)C(=O)c2ccccc2S3(=O)=O)CC1`, the “activity change, negative = cytotoxicity” value is inactive: 22.1%. On to `O=C(c1ccccc1Br)N(Cc1ccccc1F)C1CCS(=O)(=O)C1` (stereo unspecified), for which the “activity change, negative = cytotoxicity” value is inactive: 1.39%. Regarding `CCC(C)NC(=O)CSCc1nc(-c2ccc(C)cc2)oc1C` (stereo unspecified), the “activity change, negative = cytotoxicity” value is inactive: -3.07%. On to `Cc1cccc(CC(=O)NCCc2sc3nc(-c4ccc(F)cc4)nn3c2C)c1`, for which the “activity change, negative = cytotoxicity” value was inactive: -18.4%. For `CCOc1ccc(CCNC(=O)c2ccc(-c3nc(CSc4ccccc4)c(C)o3)cc2)cc1`, the “activity change, negative = cytotoxicity” value was inactive: 2.66%.

On to `COc1ccc(OCC(=O)N(Cc2ccc(C)o2)C2CCS(=O)(=O)C2)cc1` (stereo unspecified), for which the “activity change, negative = cytotoxicity” value is inactive: 13%. `Cc1ccc(Cl)cc1NC(=O)CSCc1cnn(-c2ccccc2)c1-n1cccc1`: the “activity change, negative = cytotoxicity” value was inactive: -15.4%. The result for `O=C(Cn1c(=O)ccc2cc(S(=O)(=O)N3CCCC3)ccc21)Nc1ccc(Cl)cc1` reads inactive: 11%; that for `Cc1cccc(NS(=O)(=O)c2ccc3c(c2)CCN3C(=O)C2CC2)c1C`, inactive: 1.81%.

In the case of `CCN(C(=O)c1cn(C)c(=O)c2ccccc12)c1cccc(C)c1`, the “activity change, negative = cytotoxicity” value is inactive: 2.09%.

As to `COc1ccccc1NC(=O)CN1C(=O)CCSc2ccccc21`, the “activity change, negative = cytotoxicity” value was inactive: 11.8%. The result for `COc1ccc(CNC(=O)CSc2ncc3c(n2)-c2cc(Cl)ccc2N(C)S3(=O)=O)cc1` reads inactive: 15.2%; that for `CCOC(=O)Cn1c(-c2cccs2)cc2cc(Cl)ccc21`, inactive: 0.949%; that for `COC(=O)c1c(NC(=O)/C=C/c2ccc(OC)cc2)sc2c1CCC2`, inactive: 19.6%.

The record behind these values is PubChem BioAssay AID1508642 (National Center for Advancing Translational Sciences (NCATS), 2021).
